Results as given in paper PMC4336329 (PLoS ONE, 2015).
Out of some 310,000 compounds screened, about 14,000 (4.5%) showed an effect of 50% or more. The effect is printed as a negative number. The list shows a part of the results.

Target: human ether-à-go-go-related gene (hERG) potassium channel (human, UniProt Q12809)
Test: primary screen, population patch clamp on CHO cells stably expressing hERG
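Also: peak tail current of the secondary pulse compared with the same well before compound.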

human ether-à-go-go-related gene (hERG) potassium channel, sequence (Q12809 whole entry, looked up): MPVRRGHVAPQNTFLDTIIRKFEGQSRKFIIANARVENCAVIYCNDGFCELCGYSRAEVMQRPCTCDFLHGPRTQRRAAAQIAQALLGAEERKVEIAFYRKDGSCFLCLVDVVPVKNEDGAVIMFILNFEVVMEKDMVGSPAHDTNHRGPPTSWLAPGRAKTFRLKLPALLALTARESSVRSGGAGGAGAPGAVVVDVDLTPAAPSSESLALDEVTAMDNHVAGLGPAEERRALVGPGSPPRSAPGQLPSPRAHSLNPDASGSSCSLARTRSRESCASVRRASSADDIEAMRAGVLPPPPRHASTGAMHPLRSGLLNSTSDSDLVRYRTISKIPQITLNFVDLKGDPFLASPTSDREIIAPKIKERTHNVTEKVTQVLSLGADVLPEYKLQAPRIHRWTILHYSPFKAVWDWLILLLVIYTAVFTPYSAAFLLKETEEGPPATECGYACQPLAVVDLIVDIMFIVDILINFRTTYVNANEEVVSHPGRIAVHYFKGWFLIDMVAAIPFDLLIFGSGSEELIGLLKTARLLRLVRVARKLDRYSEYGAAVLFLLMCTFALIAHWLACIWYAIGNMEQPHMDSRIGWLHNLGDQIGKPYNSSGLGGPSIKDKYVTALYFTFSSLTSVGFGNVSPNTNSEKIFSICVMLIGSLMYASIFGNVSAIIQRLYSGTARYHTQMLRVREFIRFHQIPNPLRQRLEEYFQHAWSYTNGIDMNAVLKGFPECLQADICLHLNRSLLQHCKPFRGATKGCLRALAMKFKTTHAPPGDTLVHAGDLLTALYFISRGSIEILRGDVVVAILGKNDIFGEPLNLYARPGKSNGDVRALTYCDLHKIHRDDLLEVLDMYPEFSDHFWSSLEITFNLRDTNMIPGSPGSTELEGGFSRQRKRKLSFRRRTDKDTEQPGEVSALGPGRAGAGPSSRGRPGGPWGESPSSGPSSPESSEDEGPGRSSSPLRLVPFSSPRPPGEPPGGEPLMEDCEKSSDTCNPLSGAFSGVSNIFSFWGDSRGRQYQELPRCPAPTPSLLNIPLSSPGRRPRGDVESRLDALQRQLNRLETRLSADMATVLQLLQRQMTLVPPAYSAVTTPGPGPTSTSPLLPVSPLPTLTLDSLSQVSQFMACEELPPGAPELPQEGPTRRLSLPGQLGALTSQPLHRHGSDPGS

First: CCOC(=O)CC(NC(=O)c1ccc(C)cc1)c1ccc(C)cc1 (stereo not shown)
Second: Cc1ccc(C(=O)N2CCN(c3ccc(NC(=O)c4cc(C)cc(C)c4)cc3)CC2)cc1
The “hERG current change (%, negative = inhibition) at 10uM” value of the first is higher: 2.74% for the first, -4.62% for the second.

First: O=C(O)CCCSCC(=O)Nc1ccccc1
Second: O=C(NCCCO)C(=O)NCc1ccncc1
The “hERG current change (%, negative = inhibition) at 10uM” value of the first is lower: 8.14% for the first, 23.9% for the second.

Compared with `Cc1ccccc1Nc1nc(N)nc(COC(=O)c2cccc(S(=O)(=O)N(C)C)c2)n1`, `Cc1ccccc1NC(=O)OCc1ccccc1` is lower in “hERG current change (%, negative = inhibition) at 10uM” value: -4.61% for the first, -6.69% for the second.

First: CCOc1ccc(NC(=O)c2cc(OC)nc3ccccc23)cc1
Second: CCC(=O)NC(=S)Nc1ccc(-c2nc3ccccc3s2)cc1
The “hERG current change (%, negative = inhibition) at 10uM” value of the first is higher: 15.8% for the first, -2.92% for the second.

First: COc1ccccc1C1N(c2cc(Cl)ccc2OC)C(=O)C2CCCN21 (stereo not shown)
Second: COc1ccc(C2NC(C(=O)O)Cc3c2[nH]c2ccccc32)cc1OC (stereo not shown)
The “hERG current change (%, negative = inhibition) at 10uM” value of the first is lower: 1.23% for the first, 24.9% for the second.

Going from `CC(C)(C)n1ncc2c(=O)n(CC(=O)NC3CCCCC3)cnc21` to `COc1ccccc1NC(=O)CSc1nnnn1C1CCCCC1`, the “hERG current change (%, negative = inhibition) at 10uM” value falls from 5.38% to -33.6%.

Going from `CC(C)NC(=O)C(=O)NCc1ccccn1` to `CCOC(=O)C(/C(C)=N/NC(=O)C1CC1c1ccccc1)C(C)C` (stereo not shown), the “hERG current change (%, negative = inhibition) at 10uM” value falls from 5.94% to -28.9%.

Going from `O=C(NCCCN1CCCC1)Nc1ccccc1[N+](=O)[O-]` to `O=C(CSc1ccc(-c2ccccn2)nn1)N1CCCC1`, the “hERG current change (%, negative = inhibition) at 10uM” value falls from 18.1% to 6.44%.

Compared with `C/C(=N/NC(=O)c1nnn(-c2nonc2N)c1-c1ccccc1)c1ccncc1`, `c1ccc(-c2cc3c(ccc4nonc43)nn2)cc1` is lower in “hERG current change (%, negative = inhibition) at 10uM” value: 11.4% for the first, 10.1% for the second.

Going from `COc1cc(-c2noc(-c3ccccc3C(=O)NCc3ccco3)n2)cc(OC)c1OC` to `COc1ccc(C(=O)NCc2ccc3[nH]c(C)cc3c2)cc1OC`, the “hERG current change (%, negative = inhibition) at 10uM” value rises from -3.88% to 22.2%.

First: Cc1ccc(C)n1-c1ccsc1C(=O)CC#N
Second: NC(=O)c1ccsc1NC(=O)Cc1ccc([N+](=O)[O-])cc1
The “hERG current change (%, negative = inhibition) at 10uM” value of the first is higher: 42.2% for the first, -42.7% for the second.

Going from `CCOc1ncccc1C(=O)OCc1ccc([N+](=O)[O-])cc1` to `CCOc1ncccc1C(=O)Nc1cccc(S(=O)(=O)NC2=NCCC2)c1`, the “hERG current change (%, negative = inhibition) at 10uM” value rises from -21.1% to -6.34%.

Compared with `Cc1cccc(NCN2C(=O)c3ccncc3C2=O)n1`, `Cc1cccn2c(=O)c(C=Nc3ccccc3)c(NCc3ccco3)nc12` is lower in “hERG current change (%, negative = inhibition) at 10uM” value: 17% for the first, 4.13% for the second.

Compared with `Cc1ccc2nc(N3CCN(Cc4ccc(F)cc4)C3=O)c(C)cc2c1`, `Cc1ccc(CN2C(=O)CCSc3ccc(Cl)cc32)cc1` is higher in “hERG current change (%, negative = inhibition) at 10uM” value: -19.8% for the first, 4.52% for the second.

Compared with `O=C(NCc1ccc(F)cc1F)c1cc(COc2c(F)cccc2F)on1`, `COc1nccnc1NS(=O)(=O)c1ccc(NC(=S)NC(=O)c2ccc(F)c(F)c2)cc1` is lower in “hERG current change (%, negative = inhibition) at 10uM” value: 34% for the first, -15% for the second.

Going from `COc1ccc(/C=N/Nc2cc(N3CCOCC3)nc(C)n2)c(OC)c1` to `CCn1c(C)nc2cc(C(=O)N/N=C/c3cccc(OC)c3O)ccc21`, the “hERG current change (%, negative = inhibition) at 10uM” value rises from -4.66% to 22.6%.

First: CC(=O)n1c2c(c3ccccc31)OC(N)=C(C#N)C2c1cccc(Cl)c1Cl.CCO (stereo not shown)
Second: CC(=O)CCc1oc2ccc(C)cc2c1Cc1ccccc1
The “hERG current change (%, negative = inhibition) at 10uM” value of the first is higher: 13.2% for the first, 10.4% for the second.

Going from `C#CCOCCOCCOCCNc1nc(N2CCN(C(=O)[C@H]([C@@H](C)O)n3cc(CCCC[NH3+])nn3)CC2)nc(N2CCN(C(=O)[C@H](Cc3ccc(O)cc3)n3cc(CCO)nn3)CC2)n1.[Cl-]` to `COc1ccc(CCNC(=O)C2CCN(S(=O)(=O)c3ccc4nc5c(c(C(=O)O)c4c3)CCCC5)CC2)cc1OC`, the “hERG current change (%, negative = inhibition) at 10uM” value falls from 3.04% to 1.65%.

Going from `O=C(NCCc1c[nH]c2ccccc12)C1CCN(S(=O)(=O)c2ccc(F)cc2)CC1` to `Cc1noc(C)c1S(=O)(=O)N1CCC(C(=O)NCCc2ccc(S(N)(=O)=O)cc2)CC1`, the “hERG current change (%, negative = inhibition) at 10uM” value rises from -28.3% to 5.23%.

Going from `CCOc1cc(/C=C2/N=C(c3ccc(C(C)(C)C)cc3)OC2=O)cc(Cl)c1OS(C)(=O)=O` to `COc1ccc(-c2cc(=O)oc3c(C)c(OCC(=O)N(C)C)ccc23)cc1`, the “hERG current change (%, negative = inhibition) at 10uM” value falls from 3.92% to -15.9%.

Going from `CCOC(=O)C1CN(S(=O)(=O)c2ccc(OC)cc2)c2cc(CC(=O)OC)ccc2O1` (stereo not shown) to `COc1cccc(CNS(=O)(=O)c2ccc3c(c2)NC(=O)CS3)c1`, the “hERG current change (%, negative = inhibition) at 10uM” value rises from -19.2% to 2.05%.

Going from `O=C(NC1CCCc2ccccc21)c1cccnc1` (stereo not shown) to `CCC(C)NC(=O)CNC(=S)N(Cc1ccccc1)Cc1cccnc1` (stereo not shown), the “hERG current change (%, negative = inhibition) at 10uM” value falls from 11.5% to -16.2%.

Going from `C=CCc1cc(Cl)ccc1OCCN1CC(C)OC(C)C1.O=C(O)C(=O)O` (stereo not shown) to `Nc1nncn1C(=O)CCCOc1ccc(Cl)cc1Cl`, the “hERG current change (%, negative = inhibition) at 10uM” value rises from -53.1% to -2.23%.

Going from `Cn1c(=O)c2c(nc(SCC(=O)c3ccccc3F)n2C)n(C)c1=O` to `Cn1c(N2CCN(C(=O)Nc3ccc(F)cc3)CC2)nc2ccccc21`, the “hERG current change (%, negative = inhibition) at 10uM” value falls from 1.17% to -55.8%.

First: COc1ccc(-c2cc3cccc(OC)c3oc2=O)cc1
Second: Cc1ccc(Nc2nnc(SCC(=O)c3cc4ccccc4o3)s2)cc1C
The “hERG current change (%, negative = inhibition) at 10uM” value of the first is higher: 8.7% for the first, 8.51% for the second.

Compared with `COc1ccc(C(=O)c2ccccc2)c2c(O)ccc(C(=O)c3ccccc3)c12`, `Cc1ccccc1NC(=O)CN1C(=O)S/C(=C\c2ccc(-c3cccc(C(=O)O)c3C)o2)C1=O` is higher in “hERG current change (%, negative = inhibition) at 10uM” value: 22.3% for the first, 23.7% for the second.

Going from `O=C1OCCC1NC1=NCCC1` (stereo not shown) to `COc1ccccc1-n1nnnc1SCC(=O)NCC1CCCO1` (stereo not shown), the “hERG current change (%, negative = inhibition) at 10uM” value rises from -1.82% to 0.846%.

Going from `Cc1cc(OCC(=O)NCC2CCC(C(=O)O)CC2)c2c(C)c(C)c(=O)oc2c1` (stereo not shown) to `CCOC(=O)c1[nH]c(C)c(C(=O)OCC(=O)N2c3ccccc3CC2C)c1C` (stereo not shown), the “hERG current change (%, negative = inhibition) at 10uM” value falls from 20.7% to -0.0968%.

Going from `Clc1ccccc1/C=N/NC1=Nc2cccc3cccc1c23` to `Cc1c(Cl)cccc1N=Cc1ccc([N+](=O)[O-])s1`, the “hERG current change (%, negative = inhibition) at 10uM” value falls from 27.2% to 10.1%.

First: Cc1ccsc1/C=N/Nc1nc(=O)[nH]nc1C
Second: Cc1nc(C)c(C(=O)Nc2ncc([N+](=O)[O-])s2)o1
The “hERG current change (%, negative = inhibition) at 10uM” value of the first is lower: 4.53% for the first, 20% for the second.

Going from `O=C(NO)c1ccc(OC(F)F)cc1` to `O=C(O)c1ccn(COc2ccc(Br)cc2)n1`, the “hERG current change (%, negative = inhibition) at 10uM” value rises from 7.91% to 11.9%.

First: COCC(=O)NC1CC(C)(C)Cc2c1cnn2-c1ccc(F)cc1 (stereo not shown)
Second: O=C(CCOc1ccc(F)cc1)Nc1nccs1
The “hERG current change (%, negative = inhibition) at 10uM” value of the first is lower: -64.9% for the first, 15.1% for the second.

Compared with `Cc1cc2ccccc2n2c(SCC(=O)NCC3CCCO3)nnc12` (stereo not shown), `Cc1cccc(Nc2nnc(SCC(=O)Nc3ncc(C(F)(F)F)cc3Cl)s2)c1C` is lower in “hERG current change (%, negative = inhibition) at 10uM” value: 2.84% for the first, -7.53% for the second.

First: COc1ccc(NC(=O)CN2C(=O)NC(C)(C3CC3)C2=O)cc1S(=O)(=O)N1CCCCC1 (stereo not shown)
Second: COc1ccc(C(=O)N2CCN(S(=O)(=O)N3CCOCC3)CC2)cc1OC
The “hERG current change (%, negative = inhibition) at 10uM” value of the first is lower: 9.03% for the first, 11.2% for the second.

Compared with `C=CCC1=C/C(=C\c2c(N)n3nc(CC(=O)N4CCCC4)sc3nc2=O)C=C(OC)C1=O`, `C=CCc1cc2c(oc(=O)c3ccccc32)c(C)c1O` is lower in “hERG current change (%, negative = inhibition) at 10uM” value: 16.8% for the first, 10.7% for the second.

Going from `CN(CCO)c1ccc([N+](=O)[O-])cc1C(=O)O` to `Cc1ccc(S(=O)(=O)c2ccc([N+](=O)[O-])cn2)cc1`, the “hERG current change (%, negative = inhibition) at 10uM” value rises from -7.72% to 0.594%.

Compared with `COc1ccc(S(=O)(=O)NCCc2nnc3ccc(SCc4cccnc4)nn23)cc1`, `O=C(Nc1ccc(Oc2cccnc2)cc1)c1ccc([N+](=O)[O-])cc1` is lower in “hERG current change (%, negative = inhibition) at 10uM” value: 12.3% for the first, -2.81% for the second.

First: Cc1ccc(NC(=O)CN(C)CC(=O)Nc2c(C)cccc2C)c(Br)c1
Second: CCc1cccc(NC(=O)CCS(=O)(=O)c2cc3c(cc2C)NC(=O)CO3)c1
The “hERG current change (%, negative = inhibition) at 10uM” value of the first is higher: 1.94% for the first, -14.1% for the second.

Going from `Cc1ccc(CS(=O)(=O)Cc2ccc(C(=O)NCCc3ccccc3)o2)cc1` to `CN1/C(=C\C(=O)c2ccco2)C(C)(C)c2ccccc21`, the “hERG current change (%, negative = inhibition) at 10uM” value falls from -14.4% to -15%.

First: CCOc1cc(/C=C2\SC(=Nc3ccc(F)cc3)N(c3ccc(F)cc3)C2=O)ccc1OCC(=O)O
Second: CN1C(=O)CSC1=Nc1ccc(F)cc1
The “hERG current change (%, negative = inhibition) at 10uM” value of the first is lower: 16.9% for the first, 22.5% for the second.

First: CCC1(c2ccccc2)ON(c2c(Br)cccc2Br)C1=O (stereo not shown)
Second: O=C1COc2ccc(S(=O)(=O)N3CCc4ccccc43)cc2N1
The “hERG current change (%, negative = inhibition) at 10uM” value of the first is higher: 20.5% for the first, -12.3% for the second.

First: CCOc1ccc(-c2ccc(C=O)o2)c([N+](=O)[O-])c1
Second: CCCc1[nH]n(-c2nc3ccccc3s2)c(=O)c1C=NCC(C)C
The “hERG current change (%, negative = inhibition) at 10uM” value of the first is higher: -19.7% for the first, -75.4% for the second.

First: CCCCC(=O)Nc1sc(C(=O)N(CC)CC)c(C)c1C(=O)OC
Second: CCCC(C(=O)NC(C)(C)C)N(Cc1ccccc1Cl)C(=O)c1snc(C(N)=O)c1N (stereo not shown)
The “hERG current change (%, negative = inhibition) at 10uM” value of the first is lower: -9.07% for the first, 9.08% for the second.

Going from `O=C(NCc1ccccc1)C1=C[C@@H](C2CCCCC2)C[C@@H](OCCCCO)O1` to `CCN(C(=O)COC(=O)/C(=C/c1ccccc1)n1nnnc1C)C1CCCCC1`, the “hERG current change (%, negative = inhibition) at 10uM” value falls from 5.44% to -4.63%.
